Reference: PubChem BioAssay AID485344 (National Center for Advancing Translational Sciences (NCATS), 2010)
“And” between values parts separate entries of the source, which are not always exact repeats. Identical values can stand only once. About 6,900 (2%) of roughly 340,000 compounds were called active. Cut-off read from the data, not from the text of the source: active = inhibition above about 30%; inactive = below that, where a call was filed. The list shows a part of the results, in another mix than the full data. Entries without a call were filed so in the source.

Molecular target: D(2) dopamine receptor (Homo sapiens) (UniProt P14416)
Sequence of UniProt P14416 (P14416 whole entry, looked up): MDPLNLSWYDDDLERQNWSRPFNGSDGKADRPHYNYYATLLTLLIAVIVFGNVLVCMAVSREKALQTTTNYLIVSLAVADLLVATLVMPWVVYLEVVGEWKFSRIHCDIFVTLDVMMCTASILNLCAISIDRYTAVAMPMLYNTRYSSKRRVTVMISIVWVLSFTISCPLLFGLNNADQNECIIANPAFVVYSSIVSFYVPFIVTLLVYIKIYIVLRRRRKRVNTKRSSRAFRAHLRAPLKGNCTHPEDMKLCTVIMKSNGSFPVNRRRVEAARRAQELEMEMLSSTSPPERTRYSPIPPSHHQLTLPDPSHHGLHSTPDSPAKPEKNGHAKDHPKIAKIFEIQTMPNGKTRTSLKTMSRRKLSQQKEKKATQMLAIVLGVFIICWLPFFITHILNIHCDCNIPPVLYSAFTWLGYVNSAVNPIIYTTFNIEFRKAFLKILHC
Assay: HTS Assay for Allosteric Antagonists of the Human D2 Dopamine Receptor: Primary Screen for Antagonists; note: 0% is about no effect
Details: HEK293 TREx D2 cells, calcium flux, dopamine EC80; at 10 µM; stronger effect = higher value
How it was run: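 Cells plated overnight at 30 C with tetracycline; no-wash calcium dye, 30–90 min RT; 10 s baseline; compound pinned; 180 s read; EC80 dopamine added; another 180 s read.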

Compared with CCSc1ncc(Cl)c(C(=O)Nc2c(C(=O)Nc3cccc(C)c3)oc3ccccc23)n1, Cc1ccc2nc(-c3cccc(NC(=O)c4cccc5c(Cl)cccc45)c3)oc2c1 is lower in inhibition: 21.1% for the first, 12.8% for the second.

Going from Cc1ccc2nc(-c3ccc(Cl)cc3)cc(C(=O)OCC(=O)c3ccccc3)c2c1 to CCOC(=O)c1cc(-c2ccccc2)n(CC(=O)NCc2ccc(C)cc2)c1C, the inhibition falls from -4.37% to -7.38%.

First: Cc1cccc(NCc2nc3ccccc3n2CCOc2ccccc2C)c1
Second: CCc1nnc2c(Nc3cccc(C(C)=O)c3)nc3ccccc3n12
The inhibition of the first is lower: -3.71% for the first, 8.8% for the second.

First: COc1ccc(NC(=O)c2c(C)oc3ccc(O)c(CN4CCCC4)c23)cc1Cl
Second: CC(=O)c1ccc(NC(=O)c2cc(S(=O)(=O)N3CCOCC3)ccc2C)cc1
The inhibition of the first is higher: 4.3% for the first, 1.42% for the second.

Compared with COc1cc(C(=O)n2nc(-c3ccco3)nc2NCc2ccc(Cl)cc2)cc(OC)c1OC, COc1ccc(-c2cc(C(F)(F)F)nc(SCC(=O)NCc3ccc(OC)c(OC)c3)n2)cc1 is lower in inhibition: -6.16% for the first, -8.23% for the second.

Going from CC(=O)c1cccc(Nc2ccc3cc(S(=O)(=O)N4CCC(C)CC4)ccc3n2)c1 to COc1ccc(/C=C\c2onc(C)c2S(=O)(=O)N2CCC(C(=O)Nc3ccc(C)cc3C)CC2)cc1, the inhibition rises from 1.81% to 14.7%.

Going from CC(=O)c1ccc(NS(=O)(=O)c2cc(-c3cc(C)no3)ccc2C)cc1 to COc1ccc(-c2onc(C)c2C)cc1S(=O)(=O)NCc1ccco1, the inhibition rises from -14% to -5.62%.

Going from CCCNC(=O)CCNS(=O)(=O)c1ccc2c(c1)c(=O)n(C)c(=O)n2C to CCC(=O)N1CCc2cc(S(=O)(=O)NC(CC(C)C)C(=O)Nc3cc(C)ccc3OC)ccc21 (stereo unspecified), the inhibition rises from 4.95% to 15.8%.

Going from CC(C)c1ccc(-c2nnc3n(CCc4ccccc4)c(=O)c4ccccc4n23)cc1 to O=C(NCCc1ccccc1)c1ccc(CSc2nc3cccnc3n2Cc2ccccc2F)cc1, the inhibition falls from 21.6% to -11.3%.

First: Cc1ccc(CNC(=O)CCc2c(C)nc3nc(CNC(=O)OC(C)(C)C)nn3c2C)cc1
Second: Cc1cccc(-c2nc(CS(=O)CC(=O)NCc3ccc(Cl)cc3)c(C)o2)c1 (stereo unspecified)
The inhibition of the first is lower: 8.41% for the first, 22.8% for the second.

Going from CCCOc1ccc(C(=O)Nc2cccc(NC(=O)c3cccc(Cl)c3)c2)cc1 to CCOc1ccc(C(=O)NCc2ccc3c(c2)CCN3C(=O)c2ccccc2)cc1, the inhibition rises from 3.5% to 19.9%.

Going from CCS(=O)(=O)c1ncc(N(Cc2ccco2)Cc2sccc2C)c(C(=O)Nc2ccc(C)cc2C)n1 to CC1=C(C(=O)Nc2ccc(C)cc2C)C(c2ccc(O)cc2)n2nnnc2N1 (stereo unspecified), the inhibition rises from 3.33% to 6.61%.

Compared with CCC12CN3CC(C)(CN(C1)C3c1c[nH]c3ccccc13)C2=O (stereo unspecified), Cc1cc(N2CCN(c3ccccc3)CC2)n2cnnc2n1 is lower in inhibition: 4.22% for the first, -0.363% for the second.

First: O=C(Nc1ccc(F)cc1Cl)n1ncc2cc(Cl)ccc21
Second: Cc1ccc(-n2c(=O)c3cccnc3n2CC(=O)Nc2ccc(C)cc2Cl)cc1
The inhibition of the first is lower: 2.15% for the first, 11.9% for the second.

Compared with COc1cccc(C(=O)Nc2cccc(OCc3cc(=O)n4cc(C)ccc4n3)c2)c1, COc1cccc(-c2cn3c(n2)sc2cc(C(=O)NCc4ccccc4F)ccc23)c1 is higher in inhibition: -2.53% for the first, 16.5% for the second.

Compared with CCc1ccc(CNC(=O)c2ccc3c(c2)nc2n3CCC(C)C2)cc1 (stereo unspecified), CCOc1ccc(-c2cn3c(n2)sc2cc(C(=O)N4CCCC(C)C4)ccc23)cc1 (stereo unspecified) is lower in inhibition: 9.01% for the first, 3.95% for the second.

Going from COc1ccc(C)cc1NC(=O)CN(c1ccccc1)S(=O)(=O)N(C)C to COc1ccccc1N(CC(=O)NCCSCc1ccccc1)S(C)(=O)=O, the inhibition falls from 4.68% to -8.67%.

Compared with CCCCc1nn2c(=O)cc(COC(=O)COc3ccc(C)cc3)nc2s1, CCCCc1nn2c(=O)cc(COC(=O)c3cccc(OC)c3)nc2s1 is higher in inhibition: -4.96% for the first, 21.7% for the second.

Going from CCOC(=O)CN1C(=O)c2ccccc2Sc2ncccc21 to COc1ccc(OC)c(NC(=O)Cn2ncc3c2-c2ccccc2OC3)c1, the inhibition falls from 5.29% to -11.3%.

Going from COc1ccc(NC(=O)CN2C(=O)COc3ccc(S(=O)(=O)Nc4ccccc4)cc32)cc1 to COc1ccc(CNC(=O)CCCN2C(=O)CCn3nc(-c4cn(C)c5ccccc45)cc32)cc1, the inhibition falls from 7.56% to -10.5%.

Compared with CCOC(=O)c1c(C)oc2nc(C)nc(NCC3CCN(Cc4ccccc4C)CC3)c12, Cc1nc(N2CCOCC2)c2c(C(=O)N(C)c3ccccc3)c(C)oc2n1 is lower in inhibition: 26.5% for the first, -0.529% for the second.

Going from O=C(NCC(c1cccnc1)N1CCOCC1)C(=O)Nc1ccc(Cl)cc1 (stereo unspecified) to COc1ccccc1CNC(=O)C1CCN(C2=NS(=O)(=O)C(c3ccc(C)c(C)c3)=C2C)CC1, the inhibition rises from 2.59% to 23.2%.

Compared with O=C1CN(C(=O)c2ccc(S(=O)(=O)N3CCCCC3)cc2)C(c2ccc(F)cc2)c2cc(Cl)ccc2N1 (stereo unspecified), O=C(NCc1ccc(Cl)cc1)c1ccc(CNS(=O)(=O)c2ccc(F)cc2)cc1 is higher in inhibition: -13.7% for the first, 0.82% for the second.

First: CCN(CC)CCn1c(=N)n(CCOc2ccccc2Cl)c2ccccc21
Second: COc1ccc(CCNC(=O)c2ccc(Cn3c(=O)c4ccccc4n(Cc4ccc(F)cc4Cl)c3=O)cc2)cc1OC
The inhibition of the first is higher: 13.5% for the first, 0.117% for the second.

Going from COc1ccc(C2=C(C)C(=O)N(Cc3ccc(C(=O)Nc4ccc(F)cc4C)cc3)S2(=O)=O)cc1 to Cc1nc(-c2ccc(F)cc2)sc1CCNC(=O)c1ccc(OC(C)C)cc1, the inhibition rises from -13.4% to 4.26%.

First: Cc1c(Cl)cccc1NC(=O)CSc1nc(=O)[nH]c2c1CCCC2
Second: CC(C)Cc1nn2c(=O)cc(COC(=O)c3cccc(NS(C)(=O)=O)c3)nc2s1
The inhibition of the first is higher: 16% for the first, -7.74% for the second.

Going from O=C(NCCC1=CCCCC1)C1CCN(C(=O)N2CCOc3ccccc32)CC1 to Cc1cc(C)cc(OCC(=O)N(Cc2ccc(Cl)cc2)C2CCS(=O)(=O)C2)c1 (stereo unspecified), the inhibition rises from 0.392% to 5.19%.

COc1cc(CSc2ncc(CO)n2Cc2ccc(C)cc2)cc(OC)c1 was tested, and the inhibition was 24.3%.

With Cc1ccc(Nc2nc(N)nc(CN3CCN(C(=O)c4ccco4)CC3)n2)cc1Cl the inhibition was active: 38.5%.
With CCOC(=O)c1c(NC(C)=O)sc2c(O)c(Br)cc(Br)c12 the inhibition was active: 36.2%.
For O=C(CCN1CCN(c2ccccc2F)CC1)Nc1ccccc1Cl, the inhibition was active: 87.8%.
For CCOC(=O)c1c(C)[nH]c(C)c1C(=O)CSc1nc(N)cc(N)n1, the inhibition was active: 49.1%.
In the case of O=C(Nc1ccc2c(c1)C(=O)OC2)c1ccc(C(F)(F)F)cc1, the inhibition was active: 33.7%.
In the case of CCN1CCN(C(=O)c2ccc3c(c2)N(Cc2ccccc2)C(=O)c2ccccc2S3(=O)=O)CC1, the inhibition was -4.19% and active: 40.4%.
